Data from PubChem BioAssay AID1963576 (National Center for Advancing Translational Sciences (NCATS), 2024).
The whole screen tested about 46,000 compounds, of which about 60 (0.1%) were called active. Roughly 3% stayed inconclusive and do not appear here. The call rests on the fitted dose curve; in most records, active means well fitted inhibition curve with a large enough effect; inconclusive means small, poorly fitted or top-dose-only effect; inactive means no such curve, though single readings can be large or run the other way. The list shows a part of the results.

Experiment: Primary qHTS assay for Inhibitors of ovarian cancer metastasis using an organotypic tumor microenvironment (TME) model. Further: nearly all actives have a fitted effect of over 65% in size.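 On activity change, negative = inhibition: plate controls were DMSO wells for no effect and tomatine positive control wells for full effect.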
Details: SKOV3ip1-GFP adhesion/invasion on 3D omental model, fluorescence; series mostly up to 45.8 µM; activity change, negative = inhibition: at the top concentration
In short: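 qHTS, 4-pt dose (0.36-46 umol/L); SKOV3ip1-GFP, 1,200 cells/well, no FBS; primary omental fibroblast/mesothelial co-culture 48 h pre-grown; 2 h RT + 16 h 37 C; PBS wash, 4% PFA; GFP count 488/509 nm.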

| SMILES | activity change, negative = inhibition | outcome |
| --- | --- | --- |
| Cc1ccc(S(=O)(=O)N2CCN(Cc3cc(=O)n4nc(-c5ccccc5Cl)sc4n3)CC2)cc1 | inactive: -13.5% |  |
| O=C(NCCc1ccccc1)C(=O)NCC(c1cccs1)S(=O)(=O)c1cccs1 (centres undefined) | inactive: -0.94% |  |
| CC1(C)N=C(SCc2ccc(Cl)cc2)c2ccccc2N1 | inactive: 1.45% |  |
| Cc1cc(=O)[nH]c2nnc(SCc3ccccc3F)n12 | inactive: 7.46% |  |
| Cc1c(C(=O)N2CCCCCC2)c(S(=O)(=O)Nc2cccc(C#N)c2)c(C)n1C | inactive: 2.04% |  |
| CCCCNC(=O)CSc1nc2cc3c(cc2c(=O)n1Cc1ccc(C(=O)NCCc2ccc(OC)c(OC)c2)cc1)OCO3 | inactive: -7.26% |  |
| COc1ccc(NC(=O)N2CCCn3nc(C)cc32)cc1OC | inactive: 14.8% |  |
| Cn1c(=O)c(=O)n(C)c2cc(NS(=O)(=O)c3ccc(Br)cc3)c(Cl)cc21 | inactive: 4.8% |  |
| CCc1ccc(-n2nc(CO)c(C(=O)NCc3ccccc3Cl)n2)cc1 | inactive: -6.38% |  |
| COc1ccc(-c2cc3ccc(O)c(CN4CCCC(C)C4)c3oc2=O)cc1OC (centres undefined) | inactive: -18.5% |  |
| O=C(NCc1cccc(Cl)c1)c1ccc(NC(=O)N2CCSc3ccccc32)cc1 | inactive: 3.46% |  |
| Cc1cc2[nH]c(=O)c(=O)[nH]c2cc1S(=O)(=O)N1CCN(c2ccccc2)CC1 |  | inactive |
| COc1ccc(Cc2nc3ccccc3n2Cc2ccccc2C)cc1 |  | inactive |
| O=C(CCC(=O)N1Cc2ccccc2Oc2ncccc21)NCc1cccc(Cl)c1 | inactive: 11.1% |  |
| CC(Oc1ccccc1)C(=O)Nc1ccc(C(=O)OCc2cc(=O)n3nc(C4CC4)sc3n2)cc1 (centres undefined) | inactive: -9.69% |  |
| CCn1c(C(=O)NCc2ccccc2Cl)cc2sc(Cl)cc21 | inactive: -8.83% |  |
| Cc1ccc(CN2C(=O)SC(Nc3ccc(Cl)cc3)C2=O)cc1 (centres undefined) | inactive: 8.15% |  |
| Cc1nn(C)c(C)c1S(=O)(=O)N(CC(=O)Nc1ccc(F)cc1F)c1ccc(C(C)C)cc1 | inactive: -0.519% |  |
| COc1ccc(NC(=O)Cn2c(=O)n(-c3ccc(C)cc3)c(=O)c3c2c2cc(C)ccc2n3C)cc1 | inactive: 2.14% |  |
| Cc1ccc(Cc2c(C)nc3nc(SCC(=O)NCCC(C)C)nn3c2C)cc1 | inactive: -22.1% |  |
| COc1cccc(CNC(=O)C(=O)NCC(c2ccco2)S(=O)(=O)c2ccccc2)c1 (centres undefined) | inactive: 21.6% |  |
| O=C(CN1C(=O)CCn2nc(-c3ccccc3)cc21)NCc1ccccc1 | inactive: 2.21% |  |
| O=C(Nc1onc2c1CCCC2)c1ccccc1 | inactive: -6.37% |  |
| CCCOc1cccc(C2c3c(oc4ccc(F)cc4c3=O)C(=O)N2CCc2ccc(OC)cc2)c1 (centres undefined) | inactive: 3.59% |  |

| SMILES | activity change, negative = inhibition | outcome |
| --- | --- | --- |
| Cc1ccccc1-c1nc(CS(=O)(=O)CC(=O)NCCCc2ccccc2)c(C)o1 | inactive: 5.3% |  |
| CCC(Sc1nnc2c3ccccc3n(CC)c2n1)C(=O)Nc1ccc(NC(C)=O)cc1 (centres undefined) |  | inactive |
| COc1ccc(-n2nc(C(=O)NCCc3ccc(OC)c(OC)c3)c3c4ccccc4n(C)c3c2=O)cc1 | inactive: 0.313% |  |
| COc1cccc(C2C(C(=O)Nc3ccccc3OC)=C(C)Nc3nc(-c4ccco4)nn32)c1 (centres undefined) | inactive: -28.6% |  |
| COc1ccccc1CNC(=O)c1cnc2sc(N3CCCCC3)nn2c1=O | inactive: -3.35% |  |
| O=C(Cn1cnc2onc(-c3ccc(F)cc3)c2c1=O)N1CCN(c2ccc(F)cc2)CC1 |  | inactive |
| COc1ccc(C(=O)NCC(c2ccc(Cl)cc2)N2CCCCC2)cc1 (centres undefined) | inactive: 9.6% |  |
| COc1ccccc1CNC(=O)Cn1nc(C)n2cccc2c1=O | inactive: -7.89% |  |
| CCC(C(=O)Nc1cc(C(F)(F)F)ccc1Cl)n1nc(C)c2sc3ccccc3c2c1=O (centres undefined) | inactive: 5.41% |  |
| COc1ccc(-c2noc(CSc3nc4ccc(C)cc4[nH]3)n2)cc1 |  | inactive |
| O=C(Cn1nc(Cc2cccnc2)c2ccccc2c1=O)Nc1ccc(F)c(Cl)c1 |  | inactive |
| COc1cccc(CNC(=O)c2sc3ncccc3c2-n2c(C)ccc2C)c1OC | inactive: 5.19% |  |
| O=c1cc(COc2ccccc2Cl)nc2scc(-c3ccccc3)n12 | inactive: 3.69% |  |
| COc1ccccc1NC(=O)Cn1nnc(C(=O)NCc2cccs2)c1N | inactive: -5.8% |  |
| COc1ccccc1CNC(=O)CCn1c(=O)c2ccccc2n(CC(=O)Nc2cc(Cl)ccc2C)c1=O |  | inactive |
| CCc1cccc(NC(=O)CSc2ncc3c(n2)-c2cc(Cl)ccc2N(C)S3(=O)=O)c1 | inactive: -1.45% |  |
| CCOC(=O)c1ccc(N2C(=O)c3[nH]nc(-c4ccc(OC)cc4)c3C2c2cccc(O)c2)cc1 (centres undefined) | inactive: 2.6% |  |
| O=C(Nc1cccc(C(=O)OCc2cc(=O)n3c4c(sc3n2)CCCC4)c1)c1cccc(F)c1 |  | inactive |
| CCC(C)NC(=O)CCSc1nc(-c2ccc3c(c2)OCO3)cc(C(F)(F)F)n1 (centres undefined) |  | inactive |
| COc1ccc(NC(=O)CCS(=O)(=O)c2nc(-c3ccc4c(c3)OCO4)cc(C(F)(F)F)n2)cc1OC | inactive: 9.16% |  |
| Cc1ccc(Cl)cc1N1CCN(C(=O)Cn2nc(C)c3sc4ccccc4c3c2=O)CC1 | inactive: 0.544% |  |
| Cc1ccc(C2NC(=O)c3n[nH]c(-c4cccs4)c32)cc1 (centres undefined) | inactive: -21.5% |  |
| COCCNC(=O)c1c(NC(=O)c2cc(=O)c3cc(C)cc(C)c3o2)sc2c1CCCC2 | inactive: 7.18% |  |
| Cc1ccc(NC(=O)CSc2nc(=O)n(Cc3ccccn3)c3c2CCC3)cc1F |  | inactive |

| SMILES | activity change, negative = inhibition | outcome |
| --- | --- | --- |
| COc1cc(C(=O)NCc2ccc3c(c2)CCN3C(=O)c2ccc(Cl)cc2)cc(OC)c1OC | inactive: -2.79% |  |
| COC(=O)c1c(NC(=O)Cc2coc3cc(C)cc(C)c23)sc2c1CCC2 | inactive: -7.9% |  |
| COc1ccc(C2CC(=O)c3cc(-c4nc(-c5cccc([N+](=O)[O-])c5)cs4)c(=O)n(-c4cccc(C)c4)c3C2)cc1 (centres undefined) | inactive: 2.92% |  |
| Cc1ccc(NC(=O)CSc2nc3ccc(NC(=O)c4ccco4)cc3s2)cc1 | inactive: -18.3% |  |
| COc1cccc(Cn2c(C)c(CNCc3cccc(C)c3)c(C(=O)O)c2C)c1 | inactive: -2.41% |  |
| CC(=O)c1ccc(NC(=O)c2ccc(-c3nc(CSc4ccc(C)cc4)c(C)o3)cc2)cc1 | inactive: -8.99% |  |
| CCc1ccc(NC(=O)c2cnc3c(-c4ccccc4)c(C)nn3c2C)cc1 | inactive: -11.8% |  |
| O=C(Nc1ccccc1Cl)N1CCC2(CC1)Oc1ccccc1C(=O)N2Cc1ccc(F)cc1 | inactive: 4.97% |  |
| COc1ccc(-c2c3c(nc4sc(C(=O)Nc5cccc(OC)c5)c(N)c24)CC(C)(C)CC3=O)cc1 |  | inactive |
| CC1(O)CC(c2nc(-c3ccc4ccc(-c5ccccc5)nc4c3)c3c(N)nccn23)C1 (centres undefined) | inactive: 3.26% |  |
| CCc1ccccc1NC(=O)Cn1c(=O)n(CCc2ccccc2)c(=O)c2sc3ccccc3c21 |  | inactive |
| Cc1cccc(-c2nc3c4ccccc4nc(N4CCN(c5cccc(Cl)c5)CC4)n3n2)c1 | inactive: -6.53% |  |
| O=C(CSc1nc2ccccc2nc1Cc1ccccc1)N1CCc2ccccc21 | inactive: 47.8% |  |
| Cc1cccc(NC(=O)CSc2nc(-c3cccs3)nc3cc(=O)[nH]n23)c1 | inactive: -1.82% |  |
| CCC(C)NC(=O)c1ccc(CNS(=O)(=O)c2ccc3c(c2)C(C)(C)C(=O)N3C)cc1 (centres undefined) |  | inactive |
| CCCCN(C)C(=O)CSc1c2c(nc3ccc(Cl)cc13)CCCC2 | inactive: -4.51% |  |
| Cc1cc(C)c2oc(-c3cccc(NC(=O)c4cccc(F)c4)c3C)nc2c1 | inactive: -8.01% |  |
| Cc1cc(C(=O)N2CCN(c3ccccc3F)CC2)c2c(C)nn(-c3ccccc3)c2n1 | inactive: 11.8% |  |
| Cc1cc(C)n2nc(CNS(=O)(=O)c3cccc(Cl)c3)nc2n1 | inactive: 5.82% |  |
| COc1ccc(CCNC(=O)c2ccc(Cn3c(=O)c4cccn4c4cccnc43)cc2)cc1OC |  | inactive |
| Cc1cccc(N2CCN(CCCNC(=O)Cn3ncc4c([nH]c5ccccc54)c3=O)CC2C)c1 (centres undefined) | inactive: 1.14% |  |
| Cc1ccc(Cl)cc1N1CCN(C(=O)C2CCN(S(=O)(=O)c3cn(C)cn3)CC2)CC1 | inactive: 4.65% |  |
| Cc1cc(C)c2c(n1)nn1c(C)c(CCC(=O)Nc3cccc(C)c3C)c(C)nc21 |  | inactive |
| CCc1nn(CCCC(=O)NCc2ccccc2OC)c(=O)c2cc3occc3n12 |  | inactive |

| SMILES | activity change, negative = inhibition | outcome |
| --- | --- | --- |
| Cc1cccc(Cn2c(=O)n(-c3cc(C)cc(C)c3)c(=O)c3oc4ccccc4c32)c1 | inactive: -9.04% |  |
| Cc1ccc(Cl)cc1NC(=O)CN1C=NS(=O)(=O)c2ccccc21 | inactive: -3.22% |  |
| CCc1ccc(S(=O)(=O)Nc2ccc3c(c2)sc(=O)n3C)cc1 | inactive: 14.8% |  |
| CCc1nn(CC(=O)NCc2ccccc2)c(=O)c2cccn12 | inactive: 4.3% |  |
| CCOCCCn1c(=N)c(C(=O)NC2CCCCC2)cc2c(=O)n3ccccc3nc21 |  | inactive |
| O=C(NCCS(=O)(=O)N1CCN(c2cccc(Cl)c2)CC1)C(c1ccccc1)c1ccccc1 | inactive: -4.65% |  |
| Cc1ccc(-c2nc3cccc(C)n3c2Nc2ccc3c(c2)OCCO3)cc1 | inactive: -4.63% |  |
| COc1ccc(N(C)C(=O)Cn2cnc3sc(C)c(S(=O)(=O)N4CCN(c5ncccn5)CC4)c3c2=O)cc1 |  | inactive |
| O=C(Cn1c(=O)n(Cc2ccco2)c(=O)c2oc3ccccc3c21)Nc1ccccc1 | inactive: -2.2% |  |
| COc1cc(NC(=O)C2CCN(c3cnccn3)CC2)cc(OC)c1 | inactive: 95.1% |  |
| CCc1ccccc1Nc1nn2c(=O)c3ccc(C(=O)NC(C)C)cc3nc2s1 |  | inactive |
| CCN(CCCNC(=O)c1cc2c(=O)n(C)c3ccccc3c2s1)c1ccccc1 | inactive: -7.59% |  |
| COc1cccc(-c2cn3c(n2)sc2cc(C(=O)NC4CCCCC4)ccc23)c1 |  | inactive |
| COc1ccccc1NC(=O)CN1C(=O)C(c2ccc(F)cc2)=NC12CCCCC2 | inactive: 0.0488% |  |
| COc1ccccc1N1CCN(C(=O)C2CCN(S(=O)(=O)c3cn(C)cn3)CC2)CC1 | inactive: 1.59% |  |
| COc1cccc(N2CCN(C(=O)c3cnn(-c4ccccc4Cl)c3C3CCN(C(=O)OC(C)(C)C)CC3)CC2)c1 | inactive: 14.1% |  |
| CCCCc1ccc(NS(=O)(=O)c2cc3c4c(c2)CC(=O)N4CCC3)cc1 | inactive: -6.71% |  |
| COc1cc(Nc2ncc(F)c(Nc3ccc4c(n3)N(COP(=O)(O)O)C(=O)C(C)(C)O4)n2)cc(OC)c1OC | inactive: 1.85% |  |
| CCc1ccc2oc(-c3cc(NC(=O)c4cc(OC)c(OC)c(OC)c4)ccc3O)nc2c1 | inactive: -0.308% |  |
| CCOCCCNC(=O)c1ccc2c(=O)n(CCc3ccccc3)c(=O)[nH]c2c1 | inactive: -2.15% |  |
| CC(=O)c1ccc(NC(=O)CSc2nc(=O)n(Cc3ccccn3)c3c2CCC3)cc1 | inactive: -6.55% |  |
| COc1cccc(NC(=O)C2CCC(CNS(=O)(=O)c3csc(C(N)=O)c3)CC2)c1 (centres undefined) |  | inactive |
